Values joined by “and” are separate entries in the source; they are usually repeats but may differ in a detail not shown here. Equal values may be shown once.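 Test compounds were applied to cells in 96-well plates for 48 hours at 5 doses. GI50 is the concentration that inhibits growth by half. TGI: total growth inhibition.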 Square brackets hold non-standard residues; d marks the D form. Peptide text beside a SMILES is read from it. * marks the point of attachment. Bn2Val = CC(C)[C@@H](C(=O)*)N(Cc1ccccc1)Cc1ccccc1; NHPiperonyl = c1cc2c(cc1CN*)OCO2; NMeV = CN[C@H](C(=O)O)C(C)C; dNMeA = CN[C@H](C)C(=O)O

This assay relates to NCI-H322M lung. As to the kind of experiment: NCI tumour cell line growth inhibition, 48 h.
For the compound `CC(C)NC1CCCCC2c3cc(F)ccc3[C@]12O` (some centres undefined), the TGI is over 100 µM.

For the compound `O=C1C(=Cc2cccc(Cl)c2)N=C(c2ccccc2)N1n1c(-c2ccccc2)nc2ccccc2c1=O`, the TGI was over 100 µM.

`NNC(=O)CC(=O)Nc1ccccc1Cl` came in with a TGI of over 100 µM.

On to `COc1ccc(-c2c(-c3cc4c(c(OC)c3OC)OCO4)noc2N)cc1`, for which the GI50 was 0.625 µM and the TGI was over 100 µM.

For `COc1cc(/C=C/C(=O)c2ccc(F)cc2)ccc1OCCCCOc1cc2c(cc1OC)C(=O)N1CCCC1C=N2` (centres undefined), the GI50 is 3.24 µM and the TGI was over 35.5 µM.

In the case of `Nc1c(C(=O)c2cccc(C(O)(CO)CO)c2)cnn1-c1ccc(F)cc1`, the GI50 was over 25 µM and the TGI is over 25 µM.

`Cc1ccc2oc(=O)cc(CC(=O)O)c2c1` displayed a TGI of over 100 µM.

As to `COC(=O)C12OCC34C(CC5C(C)C6=CC(=O)OC6=CC5(C)C3C(O)C1O)OC(=O)C(OC(C)=O)C24` (centres undefined), the TGI is 43.5 µM.

On to `CC/C=C\C[C@H](O)C/C=C1/C(=O)C=C[C@@H]1C/C=C\CCCC(=O)OCCS(=O)(=O)c1ccccc1`, for which the GI50 was 3.51 µM and the TGI was determined as 15 µM.

`CN1CCN2c3ccccc3CC(C#N)(C#N)C2C1` (centres undefined) showed a TGI of over 100 µM.

`O=C1c2ccccc2-c2nc(-c3cccs3)cc3c2c1nc1ccccc13`: the TGI was found to be 75.6 µM.

As for `COc1cc(-c2nn(-c3ccc(NC(=O)Nc4ccc(Cl)c(C(F)(F)F)c4)cc3)cc2-c2ccncc2)ccc1Cl`, the GI50 was 1.96 µM and the TGI came to 5.38 µM.

The compound `CC(C)(C)n1nc(C2CC2)cc1NC(=O)Nc1ccc(Cl)cc1` had a TGI of over 100 µM.

As for `CC1(C)CCc2cc3c(cc2O1)OC(C)(C)CC3=O`, the TGI is over 100 µM.

Compound `CCCCCCCCCCCCCCCCOP(=O)(O)OP(=O)(O)OCC1OC(n2cnc3c(N)ncnc32)C(O)C1O` (centres undefined) had a TGI of over 100 µM.

`O=C(/C=C/c1ccc[nH]1)c1ccccc1` displayed a TGI of over 100 µM.

`Cn1c(=O)c2c(nc(N3CCOCC3)n2CCCNCC(O)c2ccc(O)c(O)c2)n(C)c1=O` (centres undefined): the TGI was over 100 µM.

The compound `COC(=O)CCC(=O)Nc1cccc(C(F)(F)F)c1` showed a TGI of over 100 µM.

With `Cc1ccccc1NC(=O)N/C(N)=N/c1nc(C)c(C)s1`, the GI50 is 0.598 µM and the TGI was over 100 µM.

As for `COc1ccccc1CN=C1NC(=O)/C(=C/c2ccc3ncccc3c2)S1`, the GI50 was 5.35 µM and the TGI was over 23 µM.

For `Cn1ncc2c(=O)[nH]c(-c3ccccc3)nc21`, the TGI is over 100 µM.

In the case of `Cc1cc(C)nc(NS(=O)(=O)c2ccc(Nc3nc4nc(NCc5ccccc5)nc(-c5ccc(O)cc5)c4c(=O)[nH]3)cc2)n1`, the GI50 was 48.5 µM and the TGI was over 100 µM.

`ClCCN(CC#CCCCC#CCN(CCCl)CCCl)CCCl` yielded a TGI of 31.2 µM.

For `O=C1C2=C(C(=O)c3c(O)ccc(O)c31)N(c1cccnc1)Cc1ccccc1O2`, the GI50 is 2.73 µM and the TGI is 9.64 µM.

With `COc1c(C(=O)/C(=N/Nc2cccc(Cl)c2)C(C)=O)c(O)c(OC)c2occc12`, the TGI was over 100 µM.

In the case of `CC(C)[C@H](NC(=O)[C@H](C(C)C)N(Cc1ccccc1)Cc1ccccc1)C(=O)N(C)[C@H](C(=O)N1CCC[C@H]1C(=O)N(C)[C@H](C)C(=O)NCc1ccc2c(c1)OCO2)C(C)C` (Bn2Val-V[NMeV]P[dNMeA]-NHPiperonyl), the TGI is over 100 µM.

In turn, `C/C(=N\NC(=O)C[n+]1ccccc1)c1sc(-c2nc(C)c(/C(C)=N/NC(=O)C[n+]3ccccc3)s2)nc1C` displayed a TGI of over 100 µM.

`OC1C2CCC3C2CC(C(O)(c2ccccc2)c2ccccc2)C13` (centres undefined) had a TGI of over 100 µM.

Take `Oc1ccccc1/C=N/Nc1nc2ccccc2s1`: the GI50 was 25.1 µM and the TGI was over 100 µM.

Take `CCOP(=O)(OCC)c1cc2cc(O)ccc2oc1=O`: the TGI is over 100 µM.

Compound `O=c1oc2cc(O)ccc2c(O)c1C(c1ccc2ccccc2c1)c1c(O)c2ccc(O)cc2oc1=O` yielded a TGI of over 100 µM.

Consider `CCCCCCCCCCCCCCCCCc1cc(Cl)nc(Cl)n1`, for which the TGI is over 100 µM.

The compound `Cc1c2ccccc2c(CSC(=N)N)c2ccccc12` came in with a TGI of 1.89 µM.

Regarding `Cc1ccc2c(=O)cc(-c3cc4ccccc4s3)[nH]c2n1`, the TGI is over 100 µM.

`CN(C(=N)c1ccccc1)c1ccccc1` registered a TGI of over 100 µM.

Turning to `COc1ccc(C(=O)OC2C(OC3C(O)COC(O[C@H]4C[C@H]5[C@@H]6CC=C7C[C@@H](O)CC[C@]7(C)[C@H]6CC[C@]5(C)[C@H]4[C@H](C)C(=O)CCC(C)C)C3OC(=O)C(C)C)OCC(O)C2O)cc1` (some centres undefined), the GI50 was 1.57 µM and the TGI was determined as 5.7 µM.

Compound `COc1cc(C(=O)O)cc2c1[nH]c1ccccc12` returned a TGI of over 25 µM.

Take `N=C(N)SC(c1ccccc1)c1ccccc1`: the TGI was 76.5 µM.

Regarding `CC1(C)CC(=O)c2c([nH]c(=S)c(C#N)c2-c2ccc(Br)cc2)C1`, the TGI is over 100 µM.

For `O=C1CCN=C(NC(=O)C(F)(F)F)N1CCc1c[nH]c2ccccc12`, the TGI is over 100 µM.

The compound `CCC(C#N)NCc1ccc(CNC(C#N)CC)cc1` (centres undefined) came in with a TGI of over 100 µM.

`C[C@]12CCC(=O)C=C1CC[C@@H]1[C@@H]2CC[C@]2(C)C(=O)/C(=C/c3ccncc3)C[C@@H]12` registered a TGI of 24 µM.

With `NC(N)=NS(=O)(=O)c1ccc(NC(=O)c2cccn3c(=O)c4ccccc4nc23)cc1`, the TGI was over 100 µM.

`CN(C)CCNC(=O)c1ccccc1Nc1c(Cl)cccc1Cl` yielded a TGI of 28.7 µM.

In turn, `N#Cc1c(N)n(C2OC(CO)C(O)C2O)c2ncnc(N)c12` (centres undefined) yielded a TGI of 0.237 µM.

`COC1CC(=O)C2C(=O)N(c3ccccc3)C(=O)C23C(C(=O)c2ccccc2)=C(C)NC13O` (centres undefined): the TGI is 60.9 µM.

In turn, `Cc1nc2ccccc2c(=O)n1Nc1ccc(C(=O)O)cc1` returned a TGI of over 100 µM.

Regarding `CN(C)CCn1c2c(c3ccccc31)CCc1ccccc1-2`, the TGI was 35.2 µM.

The compound `COc1ccc2c(c1)[n+]([O-])c(/C(C)=N/NC(N)=S)c(C)[n+]2[O-]` gave a TGI of over 100 µM.

Regarding `O=C(NCCN1CCOCC1)Nc1nc2ccc(Sc3nnc4ccc(-c5ccc(F)cc5)nn34)cc2s1`, the GI50 is 6.39 µM and the TGI was over 100 µM.

As for `Cn1cc(S(=O)(=O)NC(=O)Nc2ccc(Cl)cc2)c(=O)c2ccc(Cl)cc21`, the TGI is over 100 µM.

As for `CC(=O)OC(=C(C#N)C#N)c1nccnc1C(=O)O`, the TGI was over 100 µM.

`CCN1C(=O)/C(=C\c2coc3ccccc3c2=O)SC1=S` yielded a TGI of over 100 µM.

Consider `COC(=O)c1ccc(CS(=O)(=O)c2ccccc2)cc1`, for which the TGI is over 100 µM.

For `O=c1/c(=C/c2ccccc2O)sc2nc3ccccc3n12`, the TGI was over 100 µM.

The compound `C=C(c1ccccc1)[C@@]1(O)CCCC[C@H]1NC(c1ccccc1)c1ccccc1` yielded a TGI of 33.4 µM.

Consider `COc1ccc2c(c1)O/C(=C\c1ccc([N+](=O)[O-])o1)C2=O`, for which the GI50 was 4.37 µM and the TGI was over 62.1 µM.

On to `O=C1CC2(CCN(CC3COc4ccccc4O3)CC2)C(=O)N1N1CCCCCC1` (centres undefined), for which the TGI is over 100 µM.

As to `O=C(Nc1ccc(-n2ccc3c(NC(=O)c4ccccc4)ncnc32)cc1)Nc1ccc(Cl)c(C(F)(F)F)c1`, the GI50 is 1.83 µM and the TGI came out at 4.47 µM.

`CC(C)C[C@H](NC(=O)[C@H](Cc1ccccc1)NC(=O)c1cnccn1)B(O)O`: the GI50 was 0.0779 µM and 0.0259 µM; the TGI is 6.58 µM and 0.704 µM and 0.996 µM.

Turning to `Nc1cc(N2CCOCC2)nc(=O)n1-c1ccccc1`, the TGI is over 100 µM.

Turning to `[N-]=[N+]=CC(=O)OC1CCc2ccccc21` (centres undefined), the TGI was over 100 µM.

The compound `CC(=O)O[C@H]1CC[C@@]2(C)C(=CC[C@@H]3C2CC[C@]2(C)C(=O)NC(=O)CC32)C1` (some centres undefined) had a TGI of over 100 µM.

With `O=C(/C=C/c1ccccc1)Nc1ncc(Cc2ccccc2)s1`, the GI50 is 0.53 µM and the TGI is over 35.6 µM.

Take `C[C@]12CC/C(=N\O)C[C@@H]1CC[C@@H]1[C@@H]2CC[C@]2(C)/C(=N/O)CC[C@@H]12`: the GI50 was 24 µM and the TGI worked out at 66.2 µM.

Compound `CC1(OCc2ccccc2)C(=O)N2C1N(C(=O)OCc1ccccc1)CC2(C)C` (centres undefined) showed a TGI of over 100 µM.

`O=C1CC(c2ccccc2)NCCCCN2CC(CN1)C(C(O)c1ccccc1)C2=O` (centres undefined) returned a TGI of over 100 µM.

For `Clc1ccc(-c2c3nc(c(-c4ccc(Cl)cc4)c4ccc([nH]4)c(-c4ccc(Cl)cc4)c4nc(c(-c5ccc(Cl)cc5)c5ccc2[nH]5)C=C4)C=C3)cc1`, the TGI was over 100 µM.

On to `CSc1ccc(/C=C/C(=O)c2nc3ccccc3[nH]2)cc1`, for which the TGI was 71.1 µM.

`CC[C@]1(Cc2ccc(OC)c(OC)c2)C=[N+]([O-])O[C@H](OC2CCCCC2c2ccccc2)[C@@H]1OC(C)=O` (some centres undefined) returned a TGI of over 100 µM.

`Cc1ccc(N/N=C/C2=CC(C)(C)C(C#N)(C#N)C(O)=C2C#N)cc1` had a TGI of over 100 µM.

`C=C1CC(COc2ccc3c(C)c(Cl)c(=O)oc3c2)(c2ccccc2)OC1=O` (centres undefined) had a TGI of 12.1 µM.

For the compound `CCOc1ccc(NC(=O)/C(Cc2nc3ccccc3[nH]c2=O)=N\O)cc1`, the TGI was over 100 µM.

As for `Cc1cc(N2CCCCC2)nc(NCc2cc(Nc3ccnc4cc(Cl)ccc34)ccc2F)n1`, the GI50 is 1.65 µM and the TGI is 3.62 µM.

`O=C1C[C@@H]2[C@@H](C=CC23CC3)N1O` had a TGI of over 100 µM.

For the compound `O=S(=O)(Nc1nc2ccccc2nc1Nc1cccc2ccccc12)c1ccccc1`, the TGI is over 100 µM.

Compound `CC(C)C(C)C(O)C(O)C(C)C1CCC2C3COC(=O)C4CC(O)C(O)CC4(C)C3CCC12C` (centres undefined) registered a TGI of over 100 µM.

Regarding `CCCCCCCCCCCCCCC(C(=O)[O-])[n+]1ccccc1` (centres undefined), the TGI is over 100 µM.

Consider `COc1cccc([C@@H]2C/C(=N\NC(=O)C(=O)N[C@@H](C)c3ccccc3)c3cc4c(cc3N2)OCO4)c1`, for which the TGI is over 100 µM.

In turn, `COc1cccc(-c2cc(C(=O)Nc3ccc(Cl)cc3)nc(N)n2)c1` yielded a TGI of over 100 µM.

`CCOC(=O)CC[C@H](NC(=O)c1ccc(CNc2nc3cc(C(F)(F)F)ccc3nc2C(=O)OCC)cc1)C(=O)OCC` returned a TGI of over 100 µM.

Compound `CC(C)COC(=O)N1N=NC2C3CC(=O)C(O3)C21` (centres undefined) yielded a TGI of over 100 µM.

As to `CS(=O)(=O)c1nccc(-c2c(-c3cccc(OCc4ccccc4)c3)nc3sccn23)n1`, the GI50 is 5.11 µM and the TGI stood at 10.1 µM.

As for `Nc1nc(=O)c2[nH]cnc2n1O`, the TGI was over 100 µM.

In the case of `CC(=O)CC(=O)ON(C)C(C)=O`, the TGI is over 100 µM.
